Measured values reported in patent publication US20040071656A1 (published 2004).

Legend:
[1] = molecular target: T1, Endogenous Hsp70 from Hela cell lysate (UniProt P0DMV8); assay: GST pull-down from Hela cell lysate, anti-Hsc/Hsp70 immunoblot
T1 construct: mature; Detected with anti-Hsc/Hsp70 antibody SPA822
Protocol: (§1) Binding assays with GST-CD40. For binding of endogenous Hsp70 and Hsc70 from Hela cell lysate, Hela cells were lysed as described above and centrifuged at 100,000 g at 4° C. for 1 h. 20 μl bed volume of Glutathione Sepharose 4 Fast Flow (Amersham Pharmacia) per sample were preincubated with 80 pmol or 400 pmol of GST or GST-CD40 fusion protein in 50 μl binding buffer. Unbound protein was removed by washing three times with PBS. The beads were treated with 1% BSA/PBS to avoid non-specific binding, and than incubated with 150 μl of Hela cell lysate in the presence of 2 mM DTT for 20 min at 16° C. […] 10 μl of the eluates was subjected to SDS-PAGE and analyzed by immunoblotting using an anti-Hsc/Hsp70 antibody and an anti-Hsp90: antibody (SPA822 and SPA835, Stressgen).
(§2) Details for FIG. 3. […] Thereafter samples were affinity purified on glutathione-Sepharose as outlined in Experimental Procedures, subjected to SDS-PAGE and analyzed by immunoblotting with antibodies directed against Hsc70 and Hsp70 (upper lanes), and against Hsp90 (lower lanes). […] After affinity purification samples were analyzed by immunoblotting as described in A, using antibodies directed against the His6-tag. […] Protein bound to Hsp70 was analyzed by affinity purification on Ni-NTA-agarose and immunoblotting with antibodies directed against CD40.

[2] = molecular target: T2, Endogenous Hsc70 from Hela cell lysate (UniProt P11142); assay: as above
T2 construct: mature; Detected with anti-Hsc/Hsp70 antibody SPA822
Protocol: as §1, §2

[3] = molecular target: T3, Recombinant human His6-tagged Hsp70 (human, UniProt P0DMV8); assay: glutathione-Sepharose pull-down of recombinant His6-Hsp70, anti-His immunoblot
T3 construct: mature; also called His6-Hsp70; human Hsp70
Protocol: For comparison of CD40 binding of Hsp70 and its N-terminal domain, Hsp70 was preincubated in the presence or absence (mock treatment) of a 30-fold molar excess of peptide C. 3 μM of GST or GST-CD40 was added to the samples and incubated for 20 min at 16° C. For titration of peptide C, 5- to 50-fold excess of peptide C (15-150 μM) was added to the preincubation of Hsp70. Thereafter the samples were combined with 20 μl of 1% BSA-treated Glutathione Sepharose 4 Fast Flow and incubated in the presence of 2 mM DTT for another 20 min at 16° C. Unbound proteins were removed by washing the beads three times with 1 ml PBS, and immobilized proteins eluted with 30 μl elution buffer for 20 min at 22° C. 10 μl of the eluates were subjected to SDS-PAGE and analyzed by immunoblotting using a Penta-His-antibody (Quiagen). Blot signals were quantified by Quantity One (Biorad).
Details for FIG. 3. Binding of Hsp70 to CD40 is direct and depends on ADP. […] Thereafter samples were affinity purified on glutathione-Sepharose as outlined in Experimental Procedures, subjected to SDS-PAGE and analyzed by immunoblotting with antibodies directed against Hsc70 and Hsp70 (upper lanes), and against Hsp90 (lower lanes). […] After affinity purification samples were analyzed by immunoblotting as described in A, using antibodies directed against the His6-tag. […]

T2 sequence (P11142 2-646 limits assumed): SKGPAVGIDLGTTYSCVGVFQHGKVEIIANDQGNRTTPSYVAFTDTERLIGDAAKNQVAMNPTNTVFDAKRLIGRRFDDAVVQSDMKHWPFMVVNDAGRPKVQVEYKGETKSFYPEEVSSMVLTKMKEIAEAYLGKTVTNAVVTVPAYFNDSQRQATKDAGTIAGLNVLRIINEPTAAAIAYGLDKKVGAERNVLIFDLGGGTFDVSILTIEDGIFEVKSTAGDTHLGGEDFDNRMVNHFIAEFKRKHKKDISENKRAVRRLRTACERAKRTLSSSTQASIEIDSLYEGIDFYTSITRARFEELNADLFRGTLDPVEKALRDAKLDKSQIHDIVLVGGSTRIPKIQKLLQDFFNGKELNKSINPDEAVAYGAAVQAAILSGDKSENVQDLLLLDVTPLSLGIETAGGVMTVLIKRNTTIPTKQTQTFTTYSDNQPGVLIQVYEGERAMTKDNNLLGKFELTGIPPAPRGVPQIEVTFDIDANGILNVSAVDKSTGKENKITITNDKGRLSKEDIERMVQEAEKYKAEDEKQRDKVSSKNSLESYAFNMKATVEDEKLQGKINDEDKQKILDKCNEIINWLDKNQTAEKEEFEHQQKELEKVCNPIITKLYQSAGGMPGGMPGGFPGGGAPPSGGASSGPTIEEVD

B1: GST (recombinant, purified by glutathione affinity chromatography) (enzyme)
chain: not shown
notes: Negative control in the pull-down assays; also called GST alone; GST (control)
B1: no binding [1]; no binding [2]; no binding (tested: 3 µM) [3].
